In patent US20250295802A1, “HER3 ANTIBODY-DRUG CONJUGATE AND USE THEREOF” (DUALITY BIOLOGICS (SUZHOU) CO., LTD., priority 2022, published 2025):

Tests used:
[1] = system: Colo205 xenograft; experiment: Efficacy in Colo205 tumor-bearing mice; format: in vivo, mouse; conditions: 1 mg/kg tail vein 1 time every two weeks; end of experiment, 22 days
Protocol: To evaluate the anti-tumor effect of the antibody-drug conjugates of the present application using BALB/c nude mice as test animals; • Blank control (negative control group): […] Colo205 cells were subcutaneously inoculated into the right flank of the mice, 1×10^7 cells (100 μL/mouse). When the tumors grew to 80-120 mm^3, the animals were randomly grouped, 5 animals per group. The day of administration for each group was defined as day 0. The administration was performed by tail vein injection 1 time every two weeks, and the experiment ended 22 days after the administration. The tumor volume and weight were measured twice a week, and the data were recorded. At the end of the experiment, mice were euthanized and tumor growth inhibition TGI % was calculated as follows: (TGI=(1−(Ti−T0)/(Vi−V0))). Ti: mean tumor volumes of the treatment groups and the positive control group on day i of administration; T0: mean tumor volumes of the treatment groups and the positive control group on day 0 of administration; Vi: mean tumor volume of the negative control group on day i of administration; V0: mean tumor volume of the negative control group on day 0 of administration. Data were analyzed using Excel 2016 statistical software, wherein the mean value was calculated as avg; the SD value was calculated as STDEV; and the P value of the difference between groups was calculated as TTEST.

[2] = system: MDA-MB-231 cells; experiment: In vitro proliferation inhibition (CTG), MDA-MB-231; format: cell-based; conditions: 6 days of culture, not expressing Her3
Protocol: To test the proliferation inhibitory activity of the antibody-drug conjugate of the present application targeting HER3 to HCC1569 and MDA-MB-453 cells with high expression of Her3 and MDA-MB-231 tumor cells not expressing Her3 in vitro. The cells were treated with the antibody-drug conjugates at different concentrations in vitro, and after 6 days of culture, the proliferation of cells was detected using the CTG reagent, and the in vitro activity of the compounds was evaluated according to the 50% growth inhibitory concentration (IC50) value.
• 1. Cell culture: HCC1569, MDA-MB-453, or MDA-MB-231 cells were cultured in RPMI-1640 medium containing 10% FBS. • 2. Cell Preparation: HCC1569, MDA-MB-453, or MDA-MB-231 cells in logarithmic phase were taken, washed with PBS once, and digested with 2-3 mL of trypsin for 2-3 min. After the cells were digested completely, 10-15 mL of cell culture was added to elute the digested cells. […] The cells were stained with trypan blue and viable cells were counted. • 3. […] Sample adding: the prepared samples to be detected at different concentrations were added to the culture plate, and two duplicate wells were set for each sample. […] Plate reading: the 96-well cell culture plate was taken out, placed in a 2104 EnVision microplate reader, and measured for the chemiluminescence using the microplate reader. […]

[3] = system: MDA-MB-453 cells; experiment: Internalization of antibody-drug conjugates with pHrodo in MDA-MB-453 cells; format: cell-based; conditions: 10 nM
Protocol: The up-taken of the antibody-drug conjugate of the present application against the HER3 target on MDA-MB-453 cells expressing HER3 was detected. The cell, the antibody-drug conjugate (ADC) with a fixed concentration, and an internalization indicating reagent pHrodo were co-incubated, and the endocytosis capacity of the antibody-drug conjugate was evaluated by observing the number of fluorescent signal bright dots generated by pHrodo which entered the cell along with the antibody-drug conjugate in the cell at different time points.
• 1. Cell culture: MDA-MB-453 cells were cultured using a 10% FBS Leibovitz's L-15 medium. • 2. Cell preparation: MDA-MB-453 cells in logarithmic phase were taken, washed with PBS once, and digested with 2-3 mL of Versene for 2-3 min. After the cells were digested completely, 10-15 mL of cell culture was added to elute the digested cells. The eluate was centrifuged at 1000 rpm for 5 min, and the supernatant was discarded. The resulting cells were resuspended in cell culture to give a single cell suspension, which was adjusted to a viable cell density of […] cells/mL. • 3. Cell plating: the cell suspension was added to a 96-well cell culture plate at 50 μL/well. The culture plate was incubated in an incubator for 18 h (37° C., 5% CO2). • 4. Sample adding: the test antibody-drug conjugate was co-incubated with Fab-pHrodo to form a complex, adjusted to a concentration of 10 nM, and added to the cells at 50 μL/well. • 5. Culturing of cells: the culture plate was incubated in an incubator for 2, 4, 6, 24, or 48 h (37° C., 5% CO2). • 6. Plate reading: when the corresponding time point was reached, the 96-well cell culture plate was taken out, Hoechst33342 was added to perform cell nucleus staining, the plate was placed in operatta CLS for photographing, and the number of cells and the number of fluorescent bright dots in each cell were read. The average number of cell fluorescent dots was calculated using Harmony® imaging and analysis software.

[4] = system: HCC1569 breast cancer cells subcutaneous xenograft; experiment: Efficacy in HCC1569 tumor-bearing mice; format: in vivo, mouse; conditions: 1 mg/kg tail vein 1 time per week; end of experiment, 21 days
Protocol: To evaluate anti-tumor effect of the antibody-drug conjugates of the present application in a female NOD/SCID mouse model with subcutaneous xenograft of HCC1569 breast cancer cells. • Blank control (negative control group): […] The growth of the tumors was monitored. […] The day of administration for each group was defined as day 0. The administration was performed by tail vein injection 1 time per week, and the experiment ended 21 days after the administration. The tumor volume and weight were measured twice a week, and the data were recorded. At the end of the experiment, mice were euthanized and tumor growth inhibition TGI % was calculated as follows: (TGI=(1−(Ti−T0)/(Vi−V0))). Ti: mean tumor volumes of the treatment groups and the positive control group on day i of administration; TO: mean tumor volumes of the treatment groups and the positive control group on day 0 of administration; Vi: mean tumor volume of the negative control group on day i of administration; V0: mean tumor volume of the negative control group on day 0 of administration. Data were analyzed using Excel 2016 statistical software, wherein the mean value was calculated as avg; the SD value was calculated as STDEV; and the P value of the difference between groups was calculated as TTEST.

B1: ADC-1-X1: anti-Her3 antibody hu3F8-2 conjugated with linker-payload X1, DAR 7.12 (conjugate)
heavy: QVQLQESGPGLVKPSETLSLTCTVSGYSITSAYYWNWIRQPFGKGLEWMGYISYDGRNNFNPSLKNRVTISRDTSKNQFSLKLSSVTAADTAVYYCARDGDYDYFDYWGQGTTVTVSS[human IgG1 constant region left out]
light: DIQMTQSPSSLSASVGDRVTITCRASQDISNYLNWYQQKPGKAPKLLIYYTSILHSGVPSRFSGSGSGTDYTFTISSLQPEDIATYFCQQGDTLPPTFGGGTKLEIKRTVAAPSVFIFPPSDEQLKSGTASVVCLLNNFYPREAKVQWKVDNALQSGNSQESVTEQDSKDSTYSLSSTLTLSKADYEKHKVYACEVTHQGLSSPVTKSFNRGEC
Mean tumor volume [1]: 385.11 ± 111 mm^3
Tumor growth inhibition % [1]: 24.33%
IC50 [2]: > 100 nM
Average number of fluorescence dots in cells ([3]; assay time 2 h): 1.1
Average number of fluorescence dots in cells ([3]; assay time 4 h): 2.0
Average number of fluorescence dots in cells ([3]; assay time 6 h): 2.5
Average number of fluorescence dots in cells ([3]; assay time 24 h): 2.7
Average number of fluorescence dots in cells ([3]; assay time 48 h): 4.0
Mean tumor volume [4]: 254.63 ± 57.6 mm^3
Tumor growth inhibition % [4]: 76.39%
